The supplement of paper PMC12355420
Where a name gives a salt, the structure may show the parent alone. The list shows a part of the results. Cut-off read from the data, not from the text of the source: active = 0.5 or less and inactive = the rest. Repeats are few or missing, and single values can be far off.

Experiments:
Settings in all cases: 50 µM; 24 h
[1] = test system: HeLa VPS33A reporter cells; assay: relative cell viability (CellMask signal) vs DMSO (fraction of DMSO); higher = less cytotoxic;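 note: primary screen of an FDA-approved drug library in HeLa reporter cells in 96-well format, CellMask signal normalized to DMSO-treated wells set as 1, under 0.5 deemed highly cytotoxic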
[2] = test system: HeLa VPS33A R498W KI + HA-SDC1-FLAG; assay: relative GAG core protein HA-SDC1 amount per cell number vs DMSO (fraction of DMSO); higher = more SDC1 (GAG core protein);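 note: HA-SDC1 level read out by In-Cell Western staining with an anti-HA antibody against the N-terminal tag, screening FDA-approved library drugs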
[3] = test system: HeLa VPS33A KO + NLuc-VPS33A R498W; assay: relative mutant VPS33A R498W amount (NanoLuc luminescence) vs DMSO (fraction of DMSO); HeLa model of a glycosaminoglycan (GAG) storage disease; KI is knock-in and KO knock-out; SDC1 is syndecan 1; higher = higher mutant VPS33A level;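 note: screen of an FDA-approved drug library, NanoLuc luminescence read after lysing the treated cells, taken as a measure of mutant VPS33A protein stability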

CC[C@@]1(O)C(=O)OCc2c1cc1n(c2=O)Cc2cc3c(CN(C)C)c(O)ccc3nc2-1 [Topotecan]
relative cell viability [1]: 1.03 | relative GAG core protein HA-SDC1 amount per cell number [2]: inactive: 0.587 | relative mutant VPS33A R498W amount [3]: 0.719

CC(C(=O)O)c1cccc(Oc2ccccc2)c1 (stereo not given) [Fenoprofen calcium hydrate]
relative cell viability [1]: 1.29 | relative GAG core protein HA-SDC1 amount per cell number [2]: inactive: 0.687 | relative mutant VPS33A R498W amount [3]: 0.58

O=c1cc(-c2ccccc2)oc2cc(O)c(O)c(O)c12 [Baicalein]
relative cell viability [1]: 1.02 | relative GAG core protein HA-SDC1 amount per cell number [2]: inactive: 0.603 | relative mutant VPS33A R498W amount [3]: 1.51

CC(=O)S[C@@H]1CC2=CC(=O)CC[C@]2(C)[C@H]2CC[C@@]3(C)[C@@H](CC[C@@]34CCC(=O)O4)[C@H]12 [Spironolactone]
relative cell viability [1]: 1.17 | relative GAG core protein HA-SDC1 amount per cell number [2]: inactive: 0.818 | relative mutant VPS33A R498W amount [3]: 0.8

Cc1ncc(C[n+]2csc(CCO)c2C)c(N)n1 [Thiamine HCl (Vitamin B1)]
relative cell viability [1]: 1.07 | relative GAG core protein HA-SDC1 amount per cell number [2]: inactive: 0.878 | relative mutant VPS33A R498W amount [3]: 1.08

CC[C@H](C)C(=O)O[C@H]1C[C@@H](C)C=C2C=C[C@H](C)[C@H](CC[C@@H]3C[C@@H](O)CC(=O)O3)[C@H]21 [Lovastatin]
relative cell viability [1]: 0.792 | relative GAG core protein HA-SDC1 amount per cell number [2]: inactive: 0.636 | relative mutant VPS33A R498W amount [3]: 3.47

CC[C@H]1OC(=O)[C@H](C)[C@@H](O[C@H]2C[C@@](C)(OC)[C@@H](O)[C@H](C)O2)[C@H](C)[C@@H](O[C@@H]2O[C@H](C)C[C@H](N(C)C)[C@H]2O)[C@](C)(O)C[C@@H](C)CN(C)[C@H](C)[C@@H](O)[C@]1(C)O [Azithromycin]
relative cell viability [1]: 1.12 | relative GAG core protein HA-SDC1 amount per cell number [2]: inactive: 0.759 | relative mutant VPS33A R498W amount [3]: 1.19

COC(=O)[C@@H]1[C@H]2C[C@H]3c4[nH]c5ccccc5c4CCN3C[C@@H]2CC[C@@H]1O [Yohimbine Hydrochloride]
relative cell viability [1]: 1.03 | relative GAG core protein HA-SDC1 amount per cell number [2]: inactive: 0.928 | relative mutant VPS33A R498W amount [3]: 1.46

CCCCC[C@H](O)/C=C/[C@@H]1[C@@H](C/C=C\CCCC(=O)O)[C@@H](O)C[C@H]1O [Prostaglandin F2α]
relative cell viability [1]: 1.02 | relative GAG core protein HA-SDC1 amount per cell number [2]: inactive: 1.21 | relative mutant VPS33A R498W amount [3]: 1.57

N#Cc1ccnc(N2C(=O)CC[C@H]2C(=O)N(c2cncc(F)c2)[C@H](C(=O)NC2CC(F)(F)C2)c2ccccc2Cl)c1
relative cell viability [1]: 1.05 | relative GAG core protein HA-SDC1 amount per cell number [2]: inactive: 0.864 | relative mutant VPS33A R498W amount [3]: 1.22

Cn1c([N+](=O)[O-])cnc1COC(N)=O [Ronidazole]
relative cell viability [1]: 1.09 | relative GAG core protein HA-SDC1 amount per cell number [2]: inactive: 0.811 | relative mutant VPS33A R498W amount [3]: 1.24

CC(C)NC[C@H](O)COc1ccc(CCOCC2CC2)cc1 [Levobetaxolol HCl]
relative cell viability [1]: 0.946 | relative GAG core protein HA-SDC1 amount per cell number [2]: inactive: 1.09 | relative mutant VPS33A R498W amount [3]: 1.35

COC(=O)C1=C(C)NC(C)=C(C(=O)OC2CCCN(Cc3ccccc3)C2)C1c1cccc([N+](=O)[O-])c1 (stereo not given) [Benidipine HCl]
relative cell viability [1]: 0.926 | relative GAG core protein HA-SDC1 amount per cell number [2]: active: 0.284 | relative mutant VPS33A R498W amount [3]: 0.333

Cn1nnc2c(C(N)=O)ncn2c1=O [Temozolomide]
relative cell viability [1]: 1.28 | relative GAG core protein HA-SDC1 amount per cell number [2]: inactive: 0.778 | relative mutant VPS33A R498W amount [3]: 0.905

CCc1c2c(nc3ccc(OC(=O)N4CCC(N5CCCCC5)CC4)cc13)-c1cc3c(c(=O)n1C2)COC(=O)[C@]3(O)CC [Irinotecan HCl Trihydrate]
relative cell viability [1]: 1.06 | relative GAG core protein HA-SDC1 amount per cell number [2]: inactive: 0.636 | relative mutant VPS33A R498W amount [3]: 0.739

COc1ccc(CN2CCN(C(c3ccc(F)cc3)c3ccc(F)cc3)CC2)c(OC)c1OC [Lomerizine HCl]
relative cell viability [1]: 0.631 | relative GAG core protein HA-SDC1 amount per cell number [2]: active: 0.242 | relative mutant VPS33A R498W amount [3]: 0.45

CC(=O)Oc1cc2c(s1)CCN(C(C(=O)C1CC1)c1ccccc1F)C2 (stereo not given) [Prasugrel]
relative cell viability [1]: 0.956 | relative GAG core protein HA-SDC1 amount per cell number [2]: inactive: 0.562 | relative mutant VPS33A R498W amount [3]: 0.562

NCCS [Cysteamine HCl]
relative cell viability [1]: 0.993 | relative GAG core protein HA-SDC1 amount per cell number [2]: inactive: 0.682 | relative mutant VPS33A R498W amount [3]: 1.05

CNC(=O)[C@H](Cc1c[nH]c2ccccc12)NC(=O)[C@@H](CC(=O)NO)CC(C)C
relative cell viability [1]: 0.7 | relative GAG core protein HA-SDC1 amount per cell number [2]: inactive: 0.613 | relative mutant VPS33A R498W amount [3]: 0.796

C#CCN(C)Cc1ccccc1 [Pargyline (hydrochloride)]
relative cell viability [1]: 1.13 | relative GAG core protein HA-SDC1 amount per cell number [2]: inactive: 0.817 | relative mutant VPS33A R498W amount [3]: 1.27

CCCCCCCCCCCCOS(=O)(=O)[O-].[Na+] [Sodium dodecyl sulfate]
relative cell viability [1]: 1.04 | relative GAG core protein HA-SDC1 amount per cell number [2]: inactive: 1.03 | relative mutant VPS33A R498W amount [3]: 1.01

Cc1ccc(C(C)C)cc1O [Carvacrol]
relative cell viability [1]: 1.07 | relative GAG core protein HA-SDC1 amount per cell number [2]: inactive: 0.811 | relative mutant VPS33A R498W amount [3]: 1.18

CN(C)CCCC1(c2ccc(F)cc2)OCc2cc(C#N)ccc21 (stereo not given) [Citalopram hydrobromide]
relative cell viability [1]: 0.964 | relative GAG core protein HA-SDC1 amount per cell number [2]: inactive: 0.583 | relative mutant VPS33A R498W amount [3]: 0.579

Cc1ncc([N+](=O)[O-])n1CCO [Metronidazole]
relative cell viability [1]: 0.951 | relative GAG core protein HA-SDC1 amount per cell number [2]: inactive: 1.04 | relative mutant VPS33A R498W amount [3]: 1.44

COc1ccc([C@]2(C#N)CC[C@@H](C(=O)O)CC2)cc1OC1CCCC1 [Cilomilast]
relative cell viability [1]: 1.03 | relative GAG core protein HA-SDC1 amount per cell number [2]: inactive: 1.05 | relative mutant VPS33A R498W amount [3]: 0.889
